Measurements taken from PubChem BioAssay AID1745853 (National Center for Advancing Translational Sciences (NCATS), 2022).
The other results are listed elsewhere or left out. These are further read-outs of the screen, such as a control signal, another cell line or another target. No call is given for them.

What was measured:
Assay in all cases: Primary Screen for Target Class Profiling of Small Molecule Inhibitors of Methyltransferases
[1] = biological target: Glycine N-methyltransferase (Homo sapiens) (UniProt Q14749); conditions: purified enzyme, MTase-Glo SAH luminescence; measured here: GNMT inhibition; at 40 µM; stronger effect = lower value
Excerpt: (§1) PI: Matthew D. Hall Ph.D. and Quinlin M. Hanson Ph.D.
(§2) National Center for Advancing Translational Sciences (NCATS)
(§3) National Institute of Health (NIH), Rockville, MD
(§4) Target class profiling (TCP) is a chemical biology approach amenable to investigating understudied biological targets. TCP is achieved by developing a generalizable assay platform and applying it to screen a curated set of compound libraries against representative members of a target class. Small molecule methyltransferases (SMMTase) are a subclass of methyltransferase that act on metabolites to modulate signaling pathways, metabolize xenobiotics, or balance the available methyl pool. We screened four curated libraries totaling 27,574 unique compounds against the SMMTases nicotinamide N-methyltransferase (NNMT), phenylethanolamine N-methyltransferase (PNMT), histamine N-methyltransferase (HNMT), glycine N-methyltransferase (GNMT), catechol O-methyltransferase (COMT), and guanidinoacetate N-methyltransferase (GAMT). The data generated by this TCP can be leveraged for informed tool molecule development. For example, in the associated publication we identified a chemotype of HNMT-selective inhibitors. Additionally, we identified a putative SMMTase-selective inhibitor with potential as a tool molecule for studying broader methyltransferase biology.
(§5) High-through put screening assays were developed at the National Center for Advancing Translational Science (NCATS) for the enzymes NNMT, PNMT, HNMT, GNMT, COMT, and GAMT. Enzymatic activity was measured as a function of SAM cofactor conversion using the MTase Glo kit (Promega) for all enzymes. All assays were performed in 1536-well format with substrates and SAM concentrations at KM values. Enzyme concentration and assay timing were optimized for 10-20% SAM conversion. Initial screening of 27,574 compounds was done as single-point assays using the highest compound concentration (40 uM). […] These compounds were replated in 11-point dose response and assayed against NNMT, PNMT, HNMT, GNMT, COMT, GAMT, and a counter-assay. The IC50 and efficacy (maximal response) values were determined for each dose-response curve. These values are also accounted for in the area under the curve (AUC) values.
(§6) PROTOCOL TABLE (as described by Inglese J, Shamu CE and Guy RK. 2007)
(§7) SEQUENCE No. (e.g., 1, 2, 3, etc.); […] (e.g., Cells, Incubation, Reagent, etc.); VALUE; DESCRIPTION.
(§8) 1; Reagent; 2 uL; SMMTase Enzyme (2x) in reaction buffer, columns 1- 48.
(§9) 2; Reagent; 1 uL; SAM (4x) in reaction buffer, columns 1-48.
(§10) 3; Controls; 23 nL; DMSO in column 4; sinefungin in DMSO (0 uM - 40 uM) in 7-point 1:2 dilution series (n = 2) in column 2.
(§11) 4; Compounds; 23 nL; Columns 5-48.
(§12) 5; Reagent; 1 uL; Substrate (4x) in reaction buffer, columns 2-48.
(§13) 6; Time; 20-30 min; Incubation.
(§14) 7; Reagent; 1 uL; MTase-Glo reagent (5X), columns 1-48.
(§15) 8; Time; 30 min; Incubation.
(§16) 9; Reagent; 5 uL; MTase-Glo Detection reagent, columns 1-48.
(§17) 10; Time; 30 min; Incubation, luminescence evolution.
(§18) 11; Detection; Luminescence; ViewLux uHTS Microplate Imager (PerkinElmer).
(§19) NOTES (numbers refer to Sequence numbers above)
(§20) 1, 2, 5. White Medium Binding Greiner 1536-well plates (Cat #789175-F, Greiner Bio-One, Monroe, NC); Reaction buffer: 50 mM Tris, pH 8.0, 3 mM MgCl2, 1 mM EDTA, 50 mM NaCl, 1 mM DTT, and 0.1 mg/mL BSA. Evaporation was prevented by covering assay plates with metal lids containing holes to allow gas diffusion.
(§21) 1. Six SMMTase were profiled: HNMT, GNMT, PNMT, COMT, NNMT, GAMT
(§22) 5. The corresponding substrate was used for each enzyme: HNMT - 5.3 uM Histamine; GNMT - >500 uM Glycine; PNMT - 16.2 uM Norephinephrine; COMT - 13.7 uM Norephinephrine; NNMT - 3.8 uM Nicotinamide; GAMT - 2.5 uM Guanidinoacetate.6, 8, 10. Room temperature
(§23) 6. Final reaction conditions: 10 nM COMT, 5 uM SAM, 15 uM norepinephrine, 50 mM Tris, pH 8.0, 3 mM MgCl2, 1 mM EDTA, 50 mM NaCl, 1 mM DTT, and 0.1 mg/mL BSA; refer to tables 2 and S1 for specific timing.
8. […]

[2] = biological target: Guanidinoacetate N-methyltransferase (Homo sapiens) (UniProt Q14353); conditions: purified enzyme, MTase-Glo SAH luminescence; measured here: GAMT inhibition; at 40 µM; stronger effect = lower value
Excerpt: as §1, §2, §3, §4, §5, §6, §7, §8, §9, §10, §11, §12, §13, §14, §15, §16, §17, §18, §19, §20, §21, §22, §23
8. […]

[3] = biological target: Histamine N-methyltransferase (Homo sapiens) (UniProt P50135); conditions: purified enzyme, MTase-Glo SAH luminescence; measured here: HNMT inhibition; at 40 µM; stronger effect = lower value
Excerpt: as §1, §2, §3, §4, §5, §6, §7, §8, §9, §10, §11, §12, §13, §14, §15, §16, §17, §18, §19, §20, §21, §22, §23
8. […]

[4] = biological target: Nicotinamide N-methyltransferase (Homo sapiens) (UniProt P40261); conditions: purified enzyme, MTase-Glo SAH luminescence; measured here: NNMT inhibition; at 40 µM; stronger effect = lower value
Excerpt: as §1, §2, §3, §4, §5, §6, §7, §8, §9, §10, §11, §12, §13, §14, §15, §16, §17, §18, §19, §20, §21, §22, §23
8. […]

[5] = biological target: Phenylethanolamine N-methyltransferase (Homo sapiens) (UniProt P11086); conditions: purified enzyme, MTase-Glo SAH luminescence; measured here: PNMT inhibition; at 40 µM; stronger effect = lower value
Excerpt: as §1, §2, §3, §4, §5, §6, §7, §8, §9, §10, §11, §12, §13, §14, §15, §16, §17, §18, §19, §20, §21, §22, §23
8. […]
% is set by controls: 0 for no effect and ±100 for the full control effect.

SMILES	activity change, negative = inhibition [1]	activity change, negative = inhibition [2]	activity change, negative = inhibition [3]	activity change, negative = inhibition [4]	activity change, negative = inhibition [5]
C[C@]1(O)CC[C@@H]2C(C(=O)O)=CO[C@@H](O[C@@H]3O[C@H](COC(=O)/C=C/c4ccc(O)c(O)c4)[C@@H](O)[C@H](O)[C@H]3O)[C@@H]21	0.631%	7.61%	10.9%	-6.28%	4.68%
CCOc1ccc(CN2CCC(c3nnc(Cn4cncn4)n3C)CC2)cn1	-0.873%	0.499%	2.25%	0.876%	3.24%
O=C(CCc1nnc2n(Cc3ccc(F)cc3)c(=O)c3ccccc3n12)NCCC1=CCCCC1	-7.46%	0%	-3.72%	-16.5%	-4.46%
CC1CCN(C(=O)Cn2c(=O)oc3cc(S(=O)(=O)N4CCCCC4C)ccc32)CC1 (stereo not drawn)	16.4%	0%	9.46%	2.64%	3.89%
Fc1cccc(/C=N/N=C/c2cccc(F)c2)c1	1.12%	4.92%	3.03%	-8.96%	0.64%
Cc1ccc(Cn2c(=O)c3ccccc3n3c(CCC(=O)N4CCc5ccccc5C4)nnc23)cc1	-7.49%	0.958%	0.348%	-5.17%	2.02%
Nc1nc(Nc2ccc(S(N)(=O)=O)cc2)n(C(=S)Nc2c(F)cccc2F)n1	1.5%	4.66%	13.5%	-5.72%	5.91%
COCCN1CC(CO)C2(CCN(C(=O)Cc3c(C)noc3C)CC2)C1 (stereo not drawn)	-1.67%	-3.53%	1.57%	-8.66%	12.2%
O=C(Cn1nc2n(CCc3ccccc3)c(=O)c3ccccc3n2c1=O)Nc1cccc(F)c1	6.37%	1.15%	6.51%	6.56%	6.32%
CC1(C(=O)NCc2ccccc2)Cn2nc(-c3ccccc3)cc2C(=O)N1c1ccc(F)cc1 (stereo not drawn)	-0.875%	0%	2.35%	-1.18%	-2.65%
O=C(NCc1ccc2c(c1)OCO2)c1ccc2c(=O)nc3c(-c4cccc(F)c4)n[nH]n3c2c1	-7.17%	4.45%	-2.45%	-2.9%	-11.6%
CC1CCN(S(=O)(=O)c2ccc3c(c2)oc(=O)n3CC(=O)N2CCC(N3CCCCC3)CC2)CC1	-2.59%	5.8%	-12.6%	8.5%	-5.9%
COc1cccc(NC(=O)Cn2c(=O)oc3cc(S(=O)(=O)NC4CCCCC4)ccc32)c1	-3.2%	3.54%	0.15%	5.47%	-25%
CC1CCCC(SCC(O)C(=O)O)CC(=O)c2c(O)cc(O)cc2CC(=O)O1 (stereo not drawn)	0%	-1.78%	-3.9%	-12.3%	3.45%
Cc1ccccc1Sc1ccc(/C=C2\SC(=S)NC2=O)cc1[N+](=O)[O-]	–	-55.8%	–	-95.5%	-34.5%
Cc1cc2c(cc3n2CC(C)(C(=O)NC2CCCCC2)N(Cc2cccc(Cl)c2)C3=O)o1 (stereo not drawn)	3.01%	4.5%	6.87%	2.92%	2.63%
CN1CCN(c2nc3cc(C(F)(F)F)ccc3n3cccc23)CC1	-7.28%	10.7%	-5.22%	-15%	-4.34%
COc1cc2nccc(Oc3ccc(NC(=O)C4(C(=O)Nc5ccc(F)cc5)CC4)cc3)c2cc1OC	-9.17%	-1.78%	-1.6%	-25%	-1.63%
CCOC(=O)c1cc2n(n1)CC(C)(C(=O)NCCC(C)C)N(c1ccc(F)cc1)C2=O (stereo not drawn)	-4.61%	3.01%	-2.63%	-1.76%	-3.75%
O=C(CSc1nnc2n(Cc3ccc(F)cc3)c(=O)c3ccccc3n12)Nc1ccc(F)cc1	-2.45%	4.69%	4.37%	-0.372%	-0.061%
CC(C)Cn1c(=O)c2ccccc2n2c(=O)n(CC(=O)N3CCN(c4ccc(F)cc4)CC3)nc12	-2.13%	0.667%	4.69%	0.269%	-1.06%
Cc1cccc(-n2cc(CN(C)C(C)c3ccon3)c(-c3cccc(F)c3)n2)c1 (stereo not drawn)	-2.18%	0.061%	0.83%	0.019%	0.617%
CC(C)c1cc(C(=O)N2CC[C@@H](NC(=O)C3CC3)C2)n[nH]1	-2.31%	2.03%	-4.48%	-19.5%	-10.3%
CN(CCc1ccccn1)[C@H]1[C@@H]2OC[C@@H](O2)[C@@H](NCc2ccncc2)[C@@H]1O	-9.32%	-4.66%	-2.86%	-2.52%	-1.98%
CN1CCN(CCNC(=O)c2cc3n(n2)CC(C)(C(=O)NC2CCCCC2)N(C)C3=O)CC1 (stereo not drawn)	4.84%	0%	-0.804%	6.35%	-0.34%
CCCNC(=O)c1cc2n(n1)CC(C)(C(=O)NC1CCCC1)N(C)C2=O (stereo not drawn)	0.059%	4.12%	-2.58%	1.61%	0.143%
CCCCN1C(=O)c2cc(C(=O)Nc3cccc(SC)c3)nn2CC1(C)C(=O)NC1CCCC1 (stereo not drawn)	6.35%	0.143%	-15.9%	9.86%	9.33%
CCCn1c(=O)c2c(ncn2C)n(CCC)c1=O	5.82%	16.9%	11.7%	-0.011%	4.47%
CCCn1c(=O)c2ccc(C(=O)NC3CCCC3)cc2n2c(=O)n(CC(=O)Nc3cccc(C)c3)nc12	0.251%	3.47%	1.34%	-0.537%	1.23%
CC1(C)[C@H](Cc2cc(CC3CCCCC3)on2)C[C@@H]1NC1CCOCC1	-5.03%	-5.7%	-18.3%	-36.1%	-6.28%
